PubChem BioAssay AID686979 (National Center for Advancing Translational Sciences (NCATS), 2013)
The campaign covered roughly 420,000 compounds. About 50,000 (12%) were called active. Inconclusive means that the source gave no clear call. Such entries were picked first, then a sample of the others. Calls follow the shape of the dose curve; as a rule, active = well fitted inhibition curve with a large enough effect; inconclusive = small, poorly fitted or top-dose-only effect; inactive = flat fitted curve, though single readings scatter. No potency is given beside an inconclusive call; the fits are too rough.

experiment: qHTS for Inhibitors of human tyrosyl-DNA phosphodiesterase 1 (TDP1): qHTS in cells in presence of CPT; settings: chicken DT40 Tdp1-/-;hTDP1 cells + 20 nM CPT, ATP luminescence, 48 h; activity change, negative = growth inhibition: at 46.2 µM (top of the series) unless noted; also: nearly all actives have a fitted effect of over 55% in size
Procedure, shortened: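 Chicken DT40 Tdp1-/- cells complemented with human TDP1, 400 cells/well, exposed to compounds plus 20 nM camptothecin for at least 48 h at 37 C; viability read as ATP content by CellTiter-Glo luminescence.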
% is scaled to controls: 0 for no effect and ±100 for the full control effect; potency is read from the fitted curve at half-maximal effect; tags tell the direction and shape of the fitted curve.

Compound	Potency	activity change, negative = growth inhibition
CS(=O)(=O)c1ccc(NCCc2ccc(S(N)(=O)=O)cc2)c([N+](=O)[O-])c1	inconclusive [inhibitor, single point]	–
O=C(NCCc1ccc(F)cc1)C(=O)NCC(c1ccco1)S(=O)(=O)c1cccs1 (stereo not given)	inconclusive [inhibitor, single point]	–
C[C@@H]1CN([C@@H](C)CO)C(=O)CCCn2nncc2CO[C@H]1CN(C)Cc1ccccc1C(F)(F)F	active: 18.4 µM	–
COc1ccc(Nc2oc(-c3ccccc3Cl)nc2C#N)cc1	active: 2.91 µM	–
CCN(CC)CCCNC(=S)N1CCN(c2nc(-c3ccc(F)cc3)cs2)CC1	active: 14.6 µM	–
Cc1ccccc1C(=O)NC(CC(C)C)C(=O)Nc1ccc(F)c([N+](=O)[O-])c1 (stereo not given)	–	inactive: -18.7%
COc1cc(OC)cc(C(=O)N2CC(=O)Nc3ccc(Cl)cc3C2c2ccccc2)c1 (stereo not given)	inconclusive [inhibitor, single point]	–
CCNC(=S)N=Nc1c(O)[nH]c2ccc(C(C)C)cc12	active: 5.17 µM	–
COc1cccc(C(=O)NCCS(=O)(=O)NC(C)CCc2ccccc2)c1 (stereo not given)	inconclusive [inhibitor, single point]	–
CCC1Nc2ncnc(N3CCOCC3)c2N(Cc2ccc(OC)cc2)C1=O (stereo not given)	inconclusive [inhibitor, single point]	–
COc1ccc(OC2C(=O)N(Cc3ccc(F)cc3)C2c2ccc(OC)c(OC)c2)cc1 (stereo not given)	active: 29.1 µM	–
Cc1nc2ccccc2c2oc(C(=O)NCCN3CCCCC3C)cc12 (stereo not given)	inconclusive [inhibitor, single point]	–
O=C(c1ccc(-c2nnc(-c3ccccc3)o2)cc1)N1CCCCCC1	active: 10 µM	–
c1ccc(Cc2nn3c(COc4ccccc4)nnc3s2)cc1	inconclusive [inhibitor, partial curve]	–
CCCCCn1c(SCC(=O)OCC)nc2cc(C(=O)NCc3ccco3)ccc2c1=O	inconclusive [inhibitor, partial curve]	–
O=C(Nc1ccc(Cl)c(C(F)(F)F)c1)C(Cc1ccccc1)NS(=O)(=O)c1ccc(Br)s1 (stereo not given)	–	inactive: -8.97%
CCCc1nc2c3ccccc3ccn2c1Cc1ccc(C)cc1	active: 20.6 µM	–
COc1ccccc1CNS(=O)(=O)c1cc(C(=O)N(C)Cc2cccnc2)c(Cl)cc1Cl	inconclusive [inhibitor, single point]	–
Cc1cc(C)nc(-n2nc(C)cc2NC(=O)CNC2CCCCC2)n1	–	inactive: -15.3%
CCN(CCNC(=O)C1CCN(S(=O)(=O)c2c(C)noc2C)CC1)c1ccccc1	inconclusive [inhibitor, single point]	–
COc1ccccc1OCC(=O)NNC(=O)c1cnccn1	inconclusive [inhibitor, single point]	–
COC(=O)c1ccc(SCC(=O)N2CCC(C)CC2)c([N+](=O)[O-])c1	–	inactive: -27.9%
COc1ccc(C2=C(C)C(N3CCC(C(=O)Nc4ccc(F)cc4C)CC3)=NS2(=O)=O)cc1	–	inactive: -23.6%

Compound	Potency	activity change, negative = growth inhibition
CC1(C)OC(=O)C2=C(CC(c3ccccc3)OC2CCc2ccccc2)O1 (stereo not given)	inconclusive [inhibitor, single point]	–
Cc1ccc(C(=O)COC(=O)CN2C(=O)C3C4CCC(C4)C3C2=O)cc1[N+](=O)[O-] (stereo not given)	–	inconclusive: -31.2% [inhibitor]
Cc1ccccc1OCCCCc1c(C)n[nH]c1C	inconclusive [inhibitor, single point]	–
O=C(Oc1ccc2c(c1)OCC2=O)c1ccc(Cl)cc1	–	inactive: -2.24%
COCCNc1ncnc2c1[nH]c1ccccc12	inconclusive [inhibitor, single point]	–
Cn1nc(C(F)(F)F)c(/C=N/OC(=O)c2ccccc2)c1SCc1ccc(Cl)cc1	inconclusive [inhibitor, single point]	–
CCN(CC)C(=O)CN1C(=O)/C(=C/c2ccccc2)SC1=S	active: 18.4 µM	–
O=C(NCc1ccccc1)c1ccc(S(=O)(=O)N2CCCCCC2)cc1	inconclusive [inhibitor, single point]	–
CC(C)C(c1nnnn1C1CCCCC1)N1CCCc2ccccc21 (stereo not given)	inconclusive [inhibitor, single point]	–
CCN(CC)c1ccc(CNc2ccc3c(c2)ncn3CC)cc1	inconclusive [inhibitor, single point]	–
CCOC(=O)C1CCCN(C(=O)c2cc(S(=O)(=O)N3CCCCCC3)ccc2OC)C1 (stereo not given)	–	inconclusive: -35.6% [inhibitor]
O=C(NCc1ccccc1)C(=O)NCC(c1cccs1)S(=O)(=O)c1ccccc1 (stereo not given)	–	inactive: -22.9%
CN(C)c1ccc(C2C=C(c3ccc(Cl)cc3OC(F)F)Nc3ncnn32)cc1 (stereo not given)	active: 9.2 µM	–
CCCCCCC(=O)NNC(=O)c1c(O)c2ccccc2n(CC)c1=O	inconclusive [inhibitor, single point]	–
Cc1ccc(N(C)C(=O)c2cc(S(=O)(=O)N3CCc4ccccc43)cn2C)cc1	inconclusive [inhibitor, single point]	–
S=C(NCC1CCCO1)N1CCN(c2nc(-c3ccccc3)cs2)CC1 (stereo not given)	inconclusive [inhibitor, single point]	–
O=C(Cc1ccc(OCCCCc2ccccc2)cc1)NO	inconclusive [inhibitor, single point]	–
CCCN(CCC)C(=O)C1c2ccccc2Oc2ccccc21	inconclusive [inhibitor, single point]	–
Cc1cccc(NC(=O)c2ccc(NCCO)c([N+](=O)[O-])c2)n1	–	inactive: 1.57%
Cc1ccnc(NC(=O)c2cc3c(=O)oc4ccc(C)cc4c3s2)c1	inconclusive [inhibitor, single point]	–
COc1ccc(S(=O)(=O)N2CCCCC2)cc1NC(=O)Cc1sc(C)nc1-c1ccc(F)cc1	inconclusive [inhibitor, single point]	–
COc1cccc(N2CCN(S(=O)(=O)c3cccc4cccnc34)CC2)c1	–	inconclusive: -30.1% [inhibitor]
